Enrichment score data for 19 molecules are collected here from the supplement of paper PMC10369915.

Some targets named below: SHP2 C-SH2 domain E139D; SHP2 N-SH2 domain L43F; SHP2 N-SH2 domain T42A; SHP2 N-SH2 domain T52S.
Common to all, as to assay: enrichment score (SH2-bound / input frequency) (ratio); bacterial display of known human phosphotyrosine sites (pTyr-Var adds point mutants) read by sequencing; higher = stronger binding; tyrosines were phosphorylated by kinases first
Details in all cases: peptide library: pTyr-Var

The target in assay [1] is SHP2 C-SH2 domain wild-type.
For assay [2], the target named is SHP2 N-SH2 domain wild-type.

Some of the results follow. No stated cut-off is given here; in the data, active = 3.2 or more and inactive = the rest. Most of these values are background signal.
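Further: displayed peptides selected on beads carrying the immobilized SH2 domain, with library peptides lacking any tyrosine serving as negative controls.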

For the molecule SHNKFYMLVAR [MFSD8_Y134_YF], the enrichment score is inactive: 2.98 in the assay with SHP2 C-SH2 domain E139D; inactive: 2.67 in assay [1]; inactive: 2.61 with SHP2 N-SH2 domain L43F; inactive: 2.42 in the assay with SHP2 N-SH2 domain T42A; inactive: 2.72 in the assay with SHP2 N-SH2 domain T52S; inactive: 3.06 in assay [2].
For the molecule SHNKYYMLVAH [MFSD8_Y134_R139H], the enrichment score in the assay with SHP2 C-SH2 domain E139D is active: 5.69; in assay [1], active: 7.44; with SHP2 N-SH2 domain L43F it was inactive: 3.16; with SHP2 N-SH2 domain T42A it was active: 3.31; in the assay with SHP2 N-SH2 domain T52S, inactive: 3.01; in assay [2] it was inactive: 2.58.
LARDMDDKEYY [MET_Y1230_Y1230D]: the enrichment score with SHP2 C-SH2 domain E139D is inactive: 0.623; in assay [1] it was inactive: 0.623; in the assay with SHP2 N-SH2 domain L43F, inactive: 0.889; with SHP2 N-SH2 domain T42A, inactive: 0.97; with SHP2 N-SH2 domain T52S, inactive: 0.544; in assay [2], inactive: 0.734.
For the molecule NESVDYRATFP [MET_Y1003], the enrichment score in the assay with SHP2 C-SH2 domain E139D was inactive: 0.791; in assay [1] it was inactive: 0.693; with SHP2 N-SH2 domain L43F, inactive: 0.841; with SHP2 N-SH2 domain T42A it was inactive: 0.614; with SHP2 N-SH2 domain T52S it was inactive: 0.733; in assay [2], inactive: 0.823.
Regarding QLQVFYATLDQ [MIPEP_Y579], the enrichment score is inactive: 2.2 with SHP2 C-SH2 domain E139D; inactive: 2.89 in assay [1]; active: 3.88 with SHP2 N-SH2 domain L43F; active: 11.7 with SHP2 N-SH2 domain T42A; active: 5.99 with SHP2 N-SH2 domain T52S; inactive: 1.74 in assay [2].
For NLPGGYSGSVK [MCPH1_Y606], the enrichment score with SHP2 C-SH2 domain E139D was inactive: 0.722; in assay [1] it was inactive: 0.872; in the assay with SHP2 N-SH2 domain L43F, inactive: 0.661; with SHP2 N-SH2 domain T42A, inactive: 0.702; in the assay with SHP2 N-SH2 domain T52S, inactive: 0.7; in assay [2] it was inactive: 0.903.
With GAVGNYSRGLA [MGMT_Y158_G160R], the enrichment score was inactive: 0.553 in the assay with SHP2 C-SH2 domain E139D; inactive: 0.548 in assay [1]; inactive: 0.523 with SHP2 N-SH2 domain L43F; inactive: 0.555 with SHP2 N-SH2 domain T42A; inactive: 0.46 with SHP2 N-SH2 domain T52S; inactive: 0.59 in assay [2].
Take FDKEFYSVHNK [MET_Y1235_YF]: the enrichment score in the assay with SHP2 C-SH2 domain E139D is inactive: 0.805; in assay [1] it was inactive: 0.628; with SHP2 N-SH2 domain L43F, inactive: 0.594; in the assay with SHP2 N-SH2 domain T42A, inactive: 0.709; with SHP2 N-SH2 domain T52S, inactive: 0.953; in assay [2], inactive: 0.948.
For SELVCYDARVH [MET_Y971_R970C], the enrichment score with SHP2 C-SH2 domain E139D is inactive: 0.557; in assay [1], inactive: 0.85; with SHP2 N-SH2 domain L43F it was inactive: 0.682; with SHP2 N-SH2 domain T42A, inactive: 0.676; with SHP2 N-SH2 domain T52S, inactive: 0.675; in assay [2], inactive: 0.758.
Take HFGCVYYGTLL [MET_Y1093_H1094Y]: the enrichment score with SHP2 C-SH2 domain E139D was inactive: 1.24; in assay [1], inactive: 1.36; in the assay with SHP2 N-SH2 domain L43F, inactive: 0.905; with SHP2 N-SH2 domain T42A it was inactive: 0.811; with SHP2 N-SH2 domain T52S, inactive: 1.22; in assay [2], inactive: 1.44.
QELRRYLKSGI [MICA_Y194_V199I]: the enrichment score was inactive: 0.62 with SHP2 C-SH2 domain E139D; inactive: 0.645 in assay [1]; inactive: 0.724 with SHP2 N-SH2 domain L43F; inactive: 0.562 with SHP2 N-SH2 domain T42A; inactive: 0.442 in the assay with SHP2 N-SH2 domain T52S; inactive: 0.389 in assay [2].
Turning to FKEDPYLVVNP [MCM6_Y810_E806K_YF], the enrichment score with SHP2 C-SH2 domain E139D was inactive: 1.08; in assay [1], inactive: 1.03; in the assay with SHP2 N-SH2 domain L43F it was inactive: 0.833; in the assay with SHP2 N-SH2 domain T42A, inactive: 0.865; with SHP2 N-SH2 domain T52S, inactive: 0.902; in assay [2] it was inactive: 0.957.
On to HDKEFYSVHNK [MET_Y1235_Y1230H_YF], for which the enrichment score is inactive: 0.526 in the assay with SHP2 C-SH2 domain E139D; inactive: 0.557 in assay [1]; inactive: 0.695 with SHP2 N-SH2 domain L43F; inactive: 0.723 with SHP2 N-SH2 domain T42A; inactive: 0.251 with SHP2 N-SH2 domain T52S; inactive: 0.624 in assay [2].
As to SSENPCATIKD [MEGF10_Y1030_Y1030C], the enrichment score in the assay with SHP2 C-SH2 domain E139D is inactive: 0.571; in assay [1], inactive: 0.591; in the assay with SHP2 N-SH2 domain L43F, inactive: 0.604; with SHP2 N-SH2 domain T42A, inactive: 0.572; in the assay with SHP2 N-SH2 domain T52S it was inactive: 0.597; in assay [2] it was inactive: 0.616.
Turning to QSKGIYYVQLE [MGAT4B_Y262], the enrichment score is inactive: 1 with SHP2 C-SH2 domain E139D; inactive: 1.28 in assay [1]; active: 4.18 with SHP2 N-SH2 domain L43F; active: 10.1 with SHP2 N-SH2 domain T42A; active: 3.81 with SHP2 N-SH2 domain T52S; inactive: 1.29 in assay [2].
In the case of MDDKEYFSVHN [MET_Y1234_Y1230D_YF], the enrichment score with SHP2 C-SH2 domain E139D was inactive: 0.678; in assay [1], inactive: 0.751; with SHP2 N-SH2 domain L43F, inactive: 0.669; in the assay with SHP2 N-SH2 domain T42A it was inactive: 0.537; with SHP2 N-SH2 domain T52S it was inactive: 0.688; in assay [2], inactive: 0.607.
Turning to MCDKEYYSVHN [MET_Y1234_Y1230C], the enrichment score is inactive: 0.775 with SHP2 C-SH2 domain E139D; inactive: 0.828 in assay [1]; inactive: 0.741 with SHP2 N-SH2 domain L43F; inactive: 0.728 with SHP2 N-SH2 domain T42A; inactive: 0.615 in the assay with SHP2 N-SH2 domain T52S; inactive: 1.02 in assay [2].
As to RSAGKDDVFLI [MECP2_Y120_Y120D_YF], the enrichment score was inactive: 0.908 with SHP2 C-SH2 domain E139D; inactive: 0.609 in assay [1]; inactive: 0.464 in the assay with SHP2 N-SH2 domain L43F; inactive: 1.33 with SHP2 N-SH2 domain T42A; inactive: 0.62 in the assay with SHP2 N-SH2 domain T52S; inactive: 0.821 in assay [2].
In the case of NESVDSRATFP [MET_Y1003_Y1003S], the enrichment score with SHP2 C-SH2 domain E139D was inactive: 0.556; in assay [1] it was inactive: 0.561; in the assay with SHP2 N-SH2 domain L43F, inactive: 0.529; with SHP2 N-SH2 domain T42A it was inactive: 0.467; with SHP2 N-SH2 domain T52S it was inactive: 0.603; in assay [2] it was inactive: 0.556.
